Measurements as given in the supplement of paper PMC12217912.
This is one part of the list. The full chains were built here from the parent and the listed change. Inactive controls read about 0.05.

B1: TEV protease; numbered along this chain (parent)
chain: MGESLFKGPRDYNPISSSICHLTNESDGHTTSLYGIGFGPFIITNKHLFRRNNGTLVVQSLHGVFKVKDTTTLQQHLVDGRDMIIIRMPKDFPPFPQKLKFREPQREERICLVTTNFQTKSMSSMVSDTSCTFPSGDGIFWKHWIQTKDGQCGSPLVSTRDGFIVGIHSASNFTNTNNYFTSVPKNFMELLTNQEAQQWVSGWRLNADSVLWGGHKVFMVKPEEPFQPVKEATQL

Variants of: B1
Assay: raw area under fraction-flipped curve 0-4 h after induction (AUC4h, not background-subtracted), DNA-recorder readout of cleavage of the substrate (dimensionless); higher = more cleavage of the substrate by the protease variant
Details: temperature: 34 °C; time window: 0-4 h after rhamnose induction
Description: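 In vivo DNA recorder in E. coli TOP10(DE3) ΔrhaA at 34 °C. Each TEVp single-site mutant (parent TEVp 0) is paired with a single-site variant of the 7-mer TEVs (canonical ENLYFQ|S). The substrate sits between flexible linkers in a Bxb1-sfGFP-TEVs-SsrA fusion, so cleavage stabilises Bxb1 and speeds flipping of a recombination array, read by NGS. The value is the raw area under the fraction-flipped curve over 0-4 h after rhamnose induction (AUC4h), with ≥20 reads per time point. It is not background-subtracted; inactive controls average about 0.047.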
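Also: Bxb1 expression induced with 0.2% (w/v) L-rhamnose at OD600 near 0.5, cultures sampled hourly, flipped fraction per protease–substrate barcode pair counted by paired-end Illumina sequencing.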

| Variant | area with substrate ENLYAQS | area with substrate ENLYCQS | area with substrate ENLYDQS | area with substrate ENLYEQS | area with substrate ENLYGQS | area with substrate ENLYHQS | area with substrate ENLYIQS | area with substrate ENLYKQS | area with substrate ENLYMQS | area with substrate ENLYNQS | area with substrate ENLYPQS | area with substrate ENLYQQS | area with substrate ENLYRQS | area with substrate ENLYSQS | area with substrate ENLYWQS | area with substrate ENLYLQS | area with substrate ENLYVQS | area with substrate ENLYYQS | area with substrate ENLYTQS |
| --- | --- | --- | --- | --- | --- | --- | --- | --- | --- | --- | --- | --- | --- | --- | --- | --- | --- | --- | --- |
| MGESLFKGPRDYNPISSSICHLTNESDGHTTSNYGIGFGPFIITNKHLFRRNNGTLVVQSLHGVFKVKDTTTLQQHLVDGRDMIIIRMPKDFPPFPQKLKFREPQREERICLVTTNFQTKSMSSMVSDTSCTFPSGDGIFWKHWIQTKDGQCGSPLVSTRDGFIVGIHSASNFTNTNNYFTSVPKNFMELLTNQEAQQWVSGWRLNADSVLWGGHKVFMVKPEEPFQPVKEATQL [L33N] | 0.0742 | 0.0704 | 0.0378 | 0.0659 | 0.0645 | 0.0774 | 0.0788 | 0.0638 | 0.0745 | 0.0579 | 0.0771 | 0.0545 | 0.0611 | 0.0755 | 0.0792 |  |  |  |  |
| MGESLFKGPRDYNPISSSICHLTNESDGHTTSLYGIGFGPFIITNKHLFRRNNGTLVVQSLHGVFKVKDTTTLQPHLVDGRDMIIIRMPKDFPPFPQKLKFREPQREERICLVTTNFQTKSMSSMVSDTSCTFPSGDGIFWKHWIQTKDGQCGSPLVSTRDGFIVGIHSASNFTNTNNYFTSVPKNFMELLTNQEAQQWVSGWRLNADSVLWGGHKVFMVKPEEPFQPVKEATQL [Q75P] | 0.067 |  | 0.0638 | 0.0582 | 0.066 | 0.0499 | 0.0487 | 0.0662 | 0.057 | 0.0643 | 0.0583 | 0.0579 | 0.0559 | 0.0544 | 0.0633 | 0.0557 | 0.0593 | 0.0549 |  |
| MGESLFKGPRDYNPISSSICHLTNESDGHTTSLYGIGFGPFIITNKHLFRRNNGTLVVQSLHGVFKVKDTTTLQQHLVDGRDMIIIRMPKDFPPFPQKLKFREPQREERICLVTTNFQTGSMSSMVSDTSCTFPSGDGIFWKHWIQTKDGQCGSPLVSTRDGFIVGIHSASNFTNTNNYFTSVPKNFMELLTNQEAQQWVSGWRLNADSVLWGGHKVFMVKPEEPFQPVKEATQL [K120G] | 0.0589 | 0.0919 |  | 0.0705 | 0.105 | 0.0643 |  |  |  |  | 0.0774 | 0.0568 | 0.032 |  | 0.0645 |  |  | 0.0063 |  |
| MGESLFKGPRDYNPISSSICHLTNESDGHTTSLYGIGFGPFIITNKHLFRRNNGTLVVQSLHGVFKVKDTTTLQQHLVDGRDMIIIRMPKDFPPFPQKLKFREPQREERICLVTTNFQTKSMSSMVSDTSCTFPSGDGIFWKHWIQTKDGQCGSPLVSTRDGFIVGIHSASNFTNTNNYFTSVPKNFMELLINQEAQQWVSGWRLNADSVLWGGHKVFMVKPEEPFQPVKEATQL [T192I] | 0.055 | 0.095 | 0.0548 | 0.0628 | 0.0488 | 0.0754 | 0.124 | 0.0194 | 0.0793 | 0.0694 | 0.0666 | 0.0618 | 0.0626 | 0.0833 | 0.09 |  | 0.106 | 0.0789 | 0.074 |
| MGESLFKGPRDYNPISSSICHLTNESDGHTTSLYGIGFGPFIITNKHLFRRNNGTLVVQSLHGVFKVKDTTTLQQHLVDGRDMIIIRMPKDFPPFVQKLKFREPQREERICLVTTNFQTKSMSSMVSDTSCTFPSGDGIFWKHWIQTKDGQCGSPLVSTRDGFIVGIHSASNFTNTNNYFTSVPKNFMELLTNQEAQQWVSGWRLNADSVLWGGHKVFMVKPEEPFQPVKEATQL [P96V] | 0.0537 | 0.0857 | 0.0651 | 0.0751 | 0.0564 | 0.0695 | 0.118 | 0.0733 | 0.0737 | 0.0645 | 0.0788 |  |  | 0.07 | 0.079 | 0.0742 | 0.114 |  |  |
| MGESLFKGPRDYNPISSSICHLTNESDGHTTELYGIGFGPFIITNKHLFRRNNGTLVVQSLHGVFKVKDTTTLQQHLVDGRDMIIIRMPKDFPPFPQKLKFREPQREERICLVTTNFQTKSMSSMVSDTSCTFPSGDGIFWKHWIQTKDGQCGSPLVSTRDGFIVGIHSASNFTNTNNYFTSVPKNFMELLTNQEAQQWVSGWRLNADSVLWGGHKVFMVKPEEPFQPVKEATQL [S32E] | 0.0688 | 0.056 | 0.0618 | 0.0636 | 0.0605 | 0.0532 |  | 0.064 | 0.0751 | 0.0606 | 0.0797 | 0.065 | 0.0633 | 0.0687 | 0.0615 |  | 0.0865 |  | 0.0702 |
| MGESLFKGPRDYNPISSSICHLTNESDGHTTSLYGIGFGPFIITNKHLFRRNNGTLVVQSGHGVFKVKDTTTLQQHLVDGRDMIIIRMPKDFPPFPQKLKFREPQREERICLVTTNFQTKSMSSMVSDTSCTFPSGDGIFWKHWIQTKDGQCGSPLVSTRDGFIVGIHSASNFTNTNNYFTSVPKNFMELLTNQEAQQWVSGWRLNADSVLWGGHKVFMVKPEEPFQPVKEATQL [L61G] | 0.0726 |  | 0.0609 | 0.0778 | 0.0708 | 0.0735 | 0.12 | 0.0519 | 0.0866 |  | 0.0702 | 0.0681 | 0.0603 | 0.0772 |  |  | 0.114 |  | 0.0791 |
| MGESLFKGPRDYNPISSSICHLTRESDGHTTSLYGIGFGPFIITNKHLFRRNNGTLVVQSLHGVFKVKDTTTLQQHLVDGRDMIIIRMPKDFPPFPQKLKFREPQREERICLVTTNFQTKSMSSMVSDTSCTFPSGDGIFWKHWIQTKDGQCGSPLVSTRDGFIVGIHSASNFTNTNNYFTSVPKNFMELLTNQEAQQWVSGWRLNADSVLWGGHKVFMVKPEEPFQPVKEATQL [N24R] | 0.055 | 0.0578 | 0.0567 | 0.0557 |  | 0.0532 | 0.0663 | 0.065 | 0.0598 | 0.0576 | 0.0673 |  | 0.0553 | 0.0568 | 0.0721 |  |  | 0.0722 | 0.0589 |
| MGESLFKGPRDYNPISSSICHLTNESDGHTTSLYGIGFGNFIITNKHLFRRNNGTLVVQSLHGVFKVKDTTTLQQHLVDGRDMIIIRMPKDFPPFPQKLKFREPQREERICLVTTNFQTKSMSSMVSDTSCTFPSGDGIFWKHWIQTKDGQCGSPLVSTRDGFIVGIHSASNFTNTNNYFTSVPKNFMELLTNQEAQQWVSGWRLNADSVLWGGHKVFMVKPEEPFQPVKEATQL [P40N] | 0.0783 | 0.101 |  | 0.0627 | 0.0702 | 0.0629 | 0.154 | 0.0143 | 0.0843 | 0.0649 |  |  | 0.077 | 0.088 | 0.0822 |  | 0.151 |  | 0.0805 |
